Sequences with one replicate were seen in a single cluster, so their values are uncertain.
Tested on: ATP
Test: switch fluorescence ratio, 500 uM ATP over buffer (Cy3 cluster intensity, sum of 5 cycles each) (fold (ratio)); higher = stronger signal-on switching upon ATP binding; sequences stand for … in TCGTCGGCAGCGTCAGATGTGTATAAGAGACAGTTTTTTTTTTTTTTTTTTTTTTTTT…TC
Settings: aptamer strand: ATP DNA aptamer (quencher-CACCTGGGGGAGTATTGCGGAGGAAGG + anchor), 100 nM annealed; ATP concentration: 500 uM; one replicate
Outline: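 Clusters with intensities outside 100-1000 RFU were excluded. The remaining Cy3-labelled switching-strand clusters on a modified Illumina MiSeq flow-cell had been annealed to 100 nM quencher-labelled ATP aptamer and imaged in selection buffer, then after 15 min with 500 uM ATP at 22 °C, for five cycles separated by NaOH stripping and re-annealing. The fluorescence ratio, averaged per switch-domain sequence, is each cluster's summed target-cycle Cy3 intensity over its summed buffer-cycle Cy3 intensity.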
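Further: ATP exposure 15 min at 22 °C before imaging.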

Sequence	switch fluorescence ratio
AGTGGATCTA	0.999
ACCAGTCTTA	1.05
TTCTGGATG	1.06
TAGGTGCATG	1.04
TAATAGAGTC	0.997
TCTACCTCG	1.05
TGCTTATAAT	1
GGCAAATTTA	1.01
CATTCTGTGA	0.978
GCATGTAGGC	1.05
ATAGCATTGA	1.05
GGCGCGCCTC	0.986
CGAGTCATGC	1.05
CTCGCCGCAT	2.25
ATCACGAAAG	1.01
CAGTGACTAA	1.02
CACAACCGAT	1.06
CCCGGAACAT	1.11
CTTAGTGTAC	1.07
GGGCGTTACG	0.967
CCATCTCCAC	1.12
TTTATGGAAA	1.01
GGAGAAGGTG	1.39
CATCGGAGCT	1.08
CTTTACCAAA	1.03
CTTATGAAAG	0.989

Sequence	switch fluorescence ratio
GGAGCTGGAA	1.06
GATGAGACTA	0.992
GGTTTTAGGC	0.983
ACTCTCGCTA	4.7
GTGAGGCCTG	1.01
TTAGCTTCTG	0.944
AAGTATATCG	0.951
GGTACCATGG	1.01
TGGTCAGGTT	0.964
CGATGGTGAC	1.05
TGCCGAGTTG	1.01
TTCCGACGGA	2.79
TCGCTCGCTC	1.88
GCCGAAAACA	0.966
GGGACATGGC	1.02
TGCATGCTTT	1.01
TTAGACGTTT	1.05
AGATCGGTAC	1.02
TCCTGAGCTA	1.04
TAAGACCTTG	1.02
TAGTCCATCT	1.1
GCTGTAGGCA	1.01
CTTACCATA	1.1
CTTCTGCTCA	1.02
GCAATAGAGT	1.13
TACAAGAGAA	0.994

Sequence	switch fluorescence ratio
CAAGTCTCAC	1.04
TCGTTGTGCG	1.08
TGTAGTCTCT	1.01
AGCTCGTTGA	0.982
CTGTTAACCT	1.77
CCACGAGATG	1.1
ATAGACTAAT	0.95
CTTAGATAGC	0.991
TTTGCATATG	0.97
CGTGAGGTTC	0.961
GACAATAGCA	1.09
GGGGTCATGA	0.935
ATTGGCAAAC	1.65
GTAACACTAT	0.989
CTCTATGTGT	0.966
GTAATCCGGA	0.992
ACATTAACTT	1.09
TGTCTTTCCA	0.985
AAATCCGTAC	1.45
ATTATAGATT	0.972
ATTGTCAAAG	0.985
GAGAGGCCTT	1.06
AGAGAGCGGC	1.32
TATTTACCTG	1.03
TGCTACAGCC	1.07
CACGCCTGAC	1.48

Sequence	switch fluorescence ratio
ATTGGTCCAG	0.977
GATCGGCATC	1.06
ATTCCCCGCT	0.987
AAGCCGGGCC	0.986
GCGTGCCTCC	1.21
ACTGAGTCAG	1.03
GAGGAAATTA	1.01
CGCTACGGAA	1.76
GATAAAAAAC	1.16
CCGTGCTCGG	0.997
TGGTCTCATT	0.97
CTACTCGGAC	1.16
GAGCGGGGCC	0.968
ATTCGGTAAA	1.02
CTTTGAAGG	1.03
CGTACAAATG	1.01
GGCCGAAAGA	0.972
TGTGGGTGAC	0.998
ATTCTCATGT	1
AACGAGTTT	0.999
ATGCCGATGG	0.967
CCATGCGCCT	1.09
CCATGCGTAC	4.02
GGCAGGTTAT	1.04
CTTGCTTTCA	0.98
CTGTACCGGG	1

Sequence	switch fluorescence ratio
GCTCCTAGGT	1.08
GGTTCATGAC	1.03
ACATTCGGCC	1.02
AACATGGACC	1.05
CGTAGAGGGA	0.98
CCTCCTGGCG	1.72
CCCGAGATGA	1
CTTTCAGGCG	0.982
GATATAACAA	1.02
CCCGCTCGGA	1.08
ATTACGGACG	1.08
ATGGGCCGAA	0.94
CCCAGGGAGG	1.19
GCCTCCTGGT	0.947
ACATCATCGG	1.02
GACCTCGAG	0.98
TAGATCGGCT	1.06
TTGGCCAGG	1.04
AGTTGTATGA	1.02
ACTACGGCGT	1.08
GGAGCTGACT	1.06
ATGCGGGAGC	0.989
ACTTATGTTA	1.02
AGGCCCAGGC	1.08
GCCCGAACAG	1.03
AGCGCCTGTG	0.965

Sequence	switch fluorescence ratio
GGGGATGTTC	0.974
TGGGCGGTTG	0.934
TGTCTTCGGC	0.991
ATGCAATTGC	1.03
GTAGTTCTTG	0.998
TAAATTCGAG	1.01
TATTGTATAC	1.15
TGGAGATAGC	1.07
CCTCATCGAT	3.65
CTGACACGCG	0.995
TTGTAGAGCG	0.956
GGTAGGTAAT	1.02
AGGCGACGCC	0.977
TCGTAAAACT	1.13
TCGGGCTCTC	0.996
GAGGAGTGCC	1.04
TTCCAAGGGG	1.02
CAGTGATAGT	1.04
CCGCGACTGG	2.33
TGGCGGGCAA	0.965
TTCGCGGAGA	1.02
GTTTCTCAG	0.987
AGCATGCCGC	0.954

From the supplement of paper PMC10126150
